# According to the supplement of paper PMC10681739:
# In all, about 4,000 sequences were measured (“arbitrary fluorescence units”: median about 830, highest 2% from about 6,500 on). The list lacks most of the strong results.
# Target: RUNX1 (UniProt Q01196)
# Assay: RUNX1 binding intensity (PBM fluorescence), RUNX1 alone (arbitrary fluorescence units); higher = stronger binding
# Settings: RUNX1 concentration 2 nM; ETS1 concentration 0 nM
# Experimental: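 gcPBM on 36-bp genomic-derived probes (partner site mutated) containing one RUNX1 site and no ETS1 site. Recombinant human RUNX1 (2 nM) was incubated alone or with ETS1 (25 nM) and detected by anti-RUNX1 antibody fluorescence. Values are medians over 4 replicate spots (not normalised). The probes sit in constant array flanks that are not printed.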
# 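Note: Full-length recombinant human RUNX1 bound to double-stranded DNA microarray spots, detected with an Alexa488-labelled secondary antibody after the anti-RUNX1 primary, read as scanned spot fluorescence.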
# Sequence of UniProt Q01196 (Q01196 whole entry): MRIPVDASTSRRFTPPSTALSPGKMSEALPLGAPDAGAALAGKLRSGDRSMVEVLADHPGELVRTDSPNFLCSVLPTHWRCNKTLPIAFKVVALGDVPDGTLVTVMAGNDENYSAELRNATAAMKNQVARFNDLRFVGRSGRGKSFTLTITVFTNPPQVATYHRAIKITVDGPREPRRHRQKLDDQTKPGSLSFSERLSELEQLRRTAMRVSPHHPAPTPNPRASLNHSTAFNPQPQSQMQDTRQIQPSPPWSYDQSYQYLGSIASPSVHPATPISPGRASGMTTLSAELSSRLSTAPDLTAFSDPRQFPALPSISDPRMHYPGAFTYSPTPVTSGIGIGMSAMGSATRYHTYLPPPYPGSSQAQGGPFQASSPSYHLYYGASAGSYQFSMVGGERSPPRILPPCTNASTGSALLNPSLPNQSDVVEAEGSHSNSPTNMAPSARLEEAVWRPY
row,Sequence,RUNX1 binding intensity
1,CCCAGGGCATGAAGGGCCAAACCGCTACTGCCACTG,780
2,AGGGAGGTAGTGCGGTAGAATTTTCAGCTATGGGTC,848
3,GTAGGGCTGGACGGCAGGCTCCGGGATACCGCCACG,694
4,CCGGCAGCAAGTTAGCATGGGCGGACCACACGGGGG,725
5,CTGAGGGTGGTTTGGGTGCAGCTCCCTGAAAGGAGA,761
6,ACCAGCAACGGAGATCAGATCTCTTGTGGTTATTAT,875
7,TGCCACCTGCTTGCTGCCTGTGTAGCCACAAGGGAC,682
8,TCCAGGCATCTCCCCCATGTTGGCTCACCGCACTAT,1170
9,ATGAATGGGATCTGGCAGCCCAGCCCTGTGGTGGAG,692
10,TGGGGCTCTTGCTGCTTATGTGACCACAGCACCTTG,705
11,AGGGACGCTGCGGCTGAAGTGGACCGAACTGCCAAG,735
12,TGGCTGCGGCTGCCGGGGCAGCGCCTCCTCTAGCAA,663
13,GGCCCACCTCCTTATGACTCAGCAGATGCGGCTGTC,829
14,GACTGCCTGTTGAAGATTGGCCTCTGCGGTACCACG,2350
15,TTGCGTCACGTTCGGCCTGCGAGTTACCGCCCACTC,928
16,TGGACACCGGGAATCTGAGCGGCCTGCGGGTCCAGA,716
17,CACTCCGCCCCCGCAGTCCCCGCGGCTTCGGCCACG,1020
18,GCGCAAGGGAGGACTGCAAGGAGGCCGCAGGTTAAA,717
19,ACCTGCACCTCCTCCTCCCTAGACCGCACCCTTCTC,2650
20,GGGAGCGGCGCGGTGAGAGAGAGGCGTATGAAGGGG,735
21,AGCGTATGAACCACAGGAACTTTCGGGTTTTAAAGA,1010
22,CCCACCGCGGCCCACGCCGAGCGTGGTGGAACAGCT,893
23,CATGTGACCCACACACCCTACTTTACTCGGAGACAG,1180
24,TTTTGTGGTTCTAGAGGGGCAGGCTCCCTGATTGCA,1510
25,AGCAACAACAAAGTAAGTGGCGGCCGCAGGGGGAGG,742
26,CTTTATGACAGAAGCCGCACCCGGAATTGAAACCAG,809
27,TAAACCCTGCTTCATGTCCCTGCGCCCCACAAGGAG,843

row,Sequence,RUNX1 binding intensity
1,GGACCCGCACCCTGGTCCCGCGGGACGGACGGAGGT,797
2,AAGGAGGCCACAAGGCCCAACGCAGCAAGTGAAACC,701
3,TGGGTGCTGGATTCGGTGAGTGTGGTTCTCATGATG,724
4,CTGAAACATGAAACAGACAAAGCCACAAGGTTCGCA,816
5,CACCTCCGTCTCACCTGACCCAGAGGCACCGCGAGC,977
6,AGTGCTGTGGTTTGACTTTGTTTTTACTGTAGCCAG,1880
7,GACCCGGCCACACCACAAGAAAAGGACGTTCCCGTA,1150
8,GTTTTAGAGCGGTCAGAGGGGCGGCTTCAGGTTTAG,808
9,CCAGGCGTTGCCGGGTTCCCGCGGTCCCGTCCCCCA,781
10,GCAGCAAGCAGGTGGCAGGGAGTGGACCCACAGCAT,683
11,ACTTACCTCCCGACGTCACAGCCTCCGACACCACAG,1090
12,AGAGGCAGTTCAGGGGTGGGAACCGCGCGGAGCTTT,712
13,CACTCCCCGTGGGAGGATCTTGGGCTGCGGCTAGGG,768
14,CGACTGCGGCAGTCCGCGGAATTCTTGTATCCAGTC,725
15,GAGAGGAGACCTGACCACGACAGGAATTGACTTACA,676
16,CTCCCGCCTTGCTCCCGGTTTGCGGCCATTGACCGT,929
17,GAGACTTAACCCCCACAGCACCGGGAATCAGCCAAC,792
18,TCTTTTTATTTGCTGTGCAGTCTCGCCCACAGCACT,908
19,AGTCTCGTTTACTGTGCGCTGTGGCCACCTGGCAGC,788
20,ACGGTGCGATTCCCCAACTACACCGCACGTCACGGA,950
21,CTGGGCCGCAGTTCAGGTGGCTGGCGCAAACTGGAA,674
22,CCAGCGTTTGCGCACCCTCTCCGATTAGCGGTCCCA,813
23,CACCCGCCCCCCGAAAGTGCCGGTGGTTGGGCTCCG,789
24,AGCTGCCGCCCGCCCACAGAGCATCTGGCCACATTT,962
25,TTACAGGGGCCGGGAGTGGCCTGCGGGCGGAGAAGT,738
26,GGCCGCGCTGCGGTGTGTACAGATTGCCGCGGCGCC,873
27,CGTCCCTGAGCAAGCTGCTGCGGCTTTCTGGGCTAG,780

row,Sequence,RUNX1 binding intensity
1,CCTCGGTTCGGAGACGGCGAAAGCAAACCGCAAGGA,2850
2,ATACCGGCGCATTCGGATTTTGAAGCCGCAGTGGAC,742
3,GAATCACCAGTTCCTCACTCCCACACAACCATGTTG,1030
4,GTGACCCTGCGGGCCAGTCACCTCCTCTGAGCCTCA,774
5,TTCATCTAGTTCCCGCCACACCCACAGAGAAGCCCA,1220
6,ACAACTCCCACAAGGCATTGGGGGGAACACCACGGT,818
7,TGGAACCGCGACAGGAGACTCGCGTGTTCAGGGGAG,706
8,AACACACAACCACAGACTTATTGCCTGTTTCAGATT,1510
9,GCCATGGCCACTTGCTGCTTGTAACCACAGCCCAGA,821
10,ACAGTACACCCACACCTAGCTTTACTGTCTGCAGAG,1040
11,AGCTGCAGCAGATGGCGGACGACCTCAACGCACAGT,674
12,ACGTGCACCGGCGGTTTGCGCGATTCCAGCGTTGCA,746
13,GAGACTCAAAGCCACACCTTCCCACTTGCTGCAGCC,913
14,CCTCCCCCTGCGGCCGCCACTTACTTTGTTGTTGCT,1230
15,CAACATGGTTGTGTGGGAGTGAGGAACTGGTGATTC,748
16,CATGATAGTGGTTGGCCAGTCAATGAGGAGACGTAC,679
17,GGAGCTACCACAGGCAGACTAACTGCCTGCTAAGCA,712
18,TACATAGGCGAAAGTGGCCTGCGGGCGCCGGAGTTG,673
19,GCATGAAGACTAACACAAAACCATCAAACCACTCTG,917
20,CAGCCACCGCACCTCCTCCTCAGCTTGCTCTGGTGC,1050
21,CTCACACCTTACCGCGAGCCCGGGGGAGGCTGACGT,917
22,AGCGGCTGCGGCCGGGCCGGGAGGCTGTGTGTGTGC,794
23,GGGGGAATCTTGCTGAGGTGAAATAGACCGCTGTGC,769
24,GCGAGACGCGGCAGAGGCTTGCGGTTGACCAAAGAA,3500
25,CATGATGGAAACCACCACCAGCACTTTCGGCCCTGG,874
26,AGAACAGCAGCAAATAAATACCCACCTCAGGACTGC,778
